This list was built around the results that the source calls inconclusive (neither active nor inactive); the mix of calls is not that of the screen. No potency is given beside an inconclusive call; the fits are too rough. The source made the active and inactive calls. The call rests on the fitted dose curve; in most records, active means well fitted inhibition curve with a large enough effect; inconclusive means small, poorly fitted or top-dose-only effect; inactive means no such curve, though single readings can be large or run the other way.
What follows are compounds tested against N-terminal Xaa-Pro-Lys N-methyltransferase 1 (Homo sapiens) (UniProt Q9BV86) (assay: Confirmatory qHTS for Inhibitors of N-terminal methyltransferase 1 (NTMT1): MTaseGlo Assay (AID 1645874; further: nearly all actives have a fitted effect of over 65% in size)). Settings: NTMT1 enzyme, MTase-Glo SAH luminescence; series mostly up to 100 µM.
UniProt Q9BV86, sequence (Q9BV86 whole entry, looked up): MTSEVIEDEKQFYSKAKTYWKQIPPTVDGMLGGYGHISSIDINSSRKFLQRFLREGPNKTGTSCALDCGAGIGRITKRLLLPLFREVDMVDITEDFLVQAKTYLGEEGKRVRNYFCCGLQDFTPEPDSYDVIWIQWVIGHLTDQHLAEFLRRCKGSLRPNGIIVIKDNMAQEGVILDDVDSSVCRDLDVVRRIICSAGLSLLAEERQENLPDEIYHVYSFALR
Outline: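 qHTS format: NTMT1 125 nM, SAM 100 uM, peptide SPKRIA 1 uM final; 15 min compound preincubation, 30 min reaction at room temperature. MTase-Glo luminescence.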
Potency means the concentration at half of the fitted maximal effect; tags describe the fitted curve by direction and shape.

| Compound | Potency |
| --- | --- |
| COc1cc(Nc2nc(-c3ccncc3)nc3ccccc23)ccc1N1CCN(C)CC1 | active: 17 µM |
| CCCNC(=O)CSc1c(CCC)cnc2c1c(=O)n(C)c(=O)n2C | inconclusive [inhibitor, partial curve] |
| Cc1cc(C)nc(NC(=S)N2CCN(c3cccc(S(C)(=O)=O)c3)CC2)c1 | inconclusive [inhibitor, partial curve, poor fit] |
| O=c1c2cc3c(cc2nc2sc(Nc4ccccc4)nn12)OCO3 | inactive |
| Cc1cc(C)nc(NC(=S)N2CCN(c3ccncc3)CC2)c1 | inconclusive [inhibitor, partial curve] |
| COc1cccc(C(=O)Nc2nc3c(s2)CCCC3)c1 | inconclusive [inhibitor, partial curve] |
| Fc1cc(Nc2nc(-c3ccncc3)nc3ccccc23)ccc1-c1ccc2[nH]ncc2c1 | inactive |
| Nc1nc2c(s1)C(c1ccccc1Cl)CC(=O)N2 (stereo not given) | inconclusive [inhibitor, partial curve] |
| Nc1ccc2nc(-c3ccc(O)cc3)sc2c1 | inconclusive [inhibitor, partial curve] |
| Cc1cccc(-c2ccc3ncnc(NCc4cccs4)c3c2)c1 | active: 10 µM |
| CCC(Sc1nc2n[nH]c(C)c2c(=N)n1-c1ccc(Br)cc1)C(=O)N(CC)CC (stereo not given) | inconclusive [inhibitor, full curve] |
| COc1ccnc(NC(=S)N2CCN(c3ncc(C(F)(F)F)cc3Cl)CC2)c1 | inconclusive [inhibitor, partial curve] |
| COc1cc2c(NC3CCN(C)CC3)nc(N3CCCN(C)CC3)nc2cc1OCCCCCN | inconclusive [inhibitor, partial curve] |
| FC(F)(F)c1cccc(N2CCN(C(=S)Nc3ccccn3)CC2)c1 | inconclusive [inhibitor, full curve] |
| COc1cc(/C=C/c2nc(C#N)c(N3CCCCCC3)o2)cc(OC)c1OC | inconclusive [inhibitor, partial curve] |
| COc1ccc(C2=Nn3c(nnc3-c3ccccc3Cl)SC2)cc1OC1CCCC1 | inconclusive [inhibitor, partial curve] |
| OCc1cccc(-c2noc(-c3ccccc3F)n2)c1 | inconclusive [inhibitor, partial curve, poor fit] |
| CCN1CCc2nc3sc(C(=O)c4ccc(F)cc4)c(N)c3cc2C1 | inconclusive [inhibitor, partial curve] |
| Cc1ccnc(NC(=S)N2CCN(c3cc(C(F)(F)F)cc(C(F)(F)F)c3)CC2)c1 | inconclusive [inhibitor, full curve] |
| Cc1cc2c(s1)c1cnn(Cc3ccc(C)c(F)c3)c(=O)c1n2C | inconclusive [inhibitor, partial curve] |
| COc1cc2c(NC3CCN(C4CCCCC4)CC3)nc(N3CCCCC3)nc2cc1OCCOCCN(C)C | inconclusive [inhibitor, partial curve] |
| CN(C)C(=O)c1ccc(-c2cc[nH]c(=O)c2N)cc1 | inactive |
| COc1cc2c(NC3CCN(CC4CCCCC4)CC3)nc(N3CCCN(C)CC3)nc2cc1OCCOCCN(C)C | inconclusive [inhibitor, partial curve] |
| COc1cc2c(NC3CCN(C(C)C)CC3)nc(N3CCCN(CC4CCCCC4)CC3)nc2cc1OCCCN1CCCC1 | active: 34.5 µM |
| COc1cc2c(NC3CCN(C(C)C)CC3)nc(N3CCCCC3)nc2cc1OCCOCCN(C)C | inconclusive [inhibitor, partial curve, poor fit] |
| COc1c/c(=C2\C=c3ccccc3=N2)[nH]/c1=C/c1[nH]c(C)cc1C | active: 35 µM |
| COc1cc(OC)cc(C2=Nn3c(nnc3-c3cccc(OC)c3)SC2)c1 | inconclusive [inhibitor, full curve] |
| CC(C)c1ccc(Nc2ncnc3c2nc2n3CCCC2)cc1 | inconclusive [inhibitor, partial curve] |
| Cc1c(Cl)ccc2sc(N3CCN(C(=O)C4CC4)CC3)nc12 | inactive |
| Cc1cc(C)nc(NC(=S)N2CCN(c3ccccn3)CC2)c1 | inconclusive [inhibitor, partial curve] |
